Assay results taken from PubChem BioAssay AID504832 (National Center for Advancing Translational Sciences (NCATS), 2011).
Screen size: about 310,000 compounds; about 18,000 (5.8%) were called active. The inconclusive results got no clear call from the source; some entries with a clear call stand among them for comparison. The call rests on the fitted dose curve; in most records, active means well fitted inhibition curve with a large enough effect; inconclusive means small, poorly fitted or top-dose-only effect, or another doubt; inactive means no such curve, though single readings can be large or run the other way. Potencies of inconclusive entries are left out as doubtful fits.

Test: Primary qHTS for delayed death inhibitors of the malarial parasite plastid, 48 hour incubation
Settings: P. falciparum luciferase growth in erythrocytes; series mostly up to 28.7 µM
Procedure, shortened: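 Cell-based growth assay: transgenic P. falciparum expressing firefly luciferase, cultured in red cells within RPMI 1640 containing 0.5% w/v Albumax, 24 mM bicarbonate and gentamycin. A drop in luciferase activity indicates inhibition.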
Potency means the concentration at half of the fitted maximal effect; tags describe the fitted curve by direction and shape.

SMILES	Potency
CCN(CC)S(=O)(=O)c1ccc2oc(C(=O)NCCN3CCOCC3)c(C)c2c1	inactive
COCCn1c(SCC(=O)c2ccc(Cl)cc2)nnc1C(C)C	inactive
COc1ccc(S(=O)(=O)NC(CC(C)C)C(=O)NC(C)c2cccs2)cc1 (stereo not given)	inconclusive [inhibitor, single point]
CCOc1ccc(OCCC(=O)N2CCN(S(=O)(=O)c3ccc(OCC)cc3)CC2)cc1	inconclusive [inhibitor, single point]
CCCCNCC1C(Oc2ccc(Cl)cc2)C(=O)N1c1ccccc1C (stereo not given)	active: 14.7 µM
C=CCOc1cccc(C2c3c(oc4ccc(F)cc4c3=O)C(=O)N2CCCN2CCOCC2)c1 (stereo not given)	active: 11.7 µM
COc1cc(/C=C/C(=O)Nc2nc3ccc(S(=O)(=O)NC(C)C)cc3s2)cc(OC)c1OC	inactive
O=C(Nc1nc2ccccc2n1CCN1CCOCC1)c1ccc(Cl)cc1	active: 13.1 µM
Cc1cc(C)nc(N2CCN(S(=O)(=O)c3ccc(F)cc3)CC2)n1	inconclusive [inhibitor, partial curve, poor fit]
CCC(=O)Nc1ccc(C(=O)CSc2nc3ccccc3[nH]2)cc1	inactive
O=C(NC1=NCCS1)c1ccc(N2CCCC2=O)cc1	inactive
Cc1nc2c(Cl)c(C)nn2c2c1CCC2	inconclusive [inhibitor, single point]
CC1CCCN(CC(O)COC(c2ccccc2)c2ccccc2)C1 (stereo not given)	inconclusive [inhibitor, single point]
COc1cc(CNCc2ccccn2)ccc1OCc1ccccc1Cl	inconclusive [inhibitor, single point]
COc1cccc(NC(=O)c2nc3ncccn3n2)c1	inactive
Cc1ccc(-c2ccc(/C=N\NC(=O)c3cc4c(ccc5ccccc54)o3)o2)cc1[N+](=O)[O-]	inconclusive [inhibitor, full curve]
O=C(Nc1ccc(Cl)c(S(=O)(=O)N2CCCC2)c1)c1nn(CCO)c(=O)c2ccccc12	inconclusive [inhibitor, partial curve]
COc1ccc(S(=O)(=O)N2CCN(CC(=O)Nc3ccc(C)c(F)c3)CC2)cc1	inactive
CCn1c(Cc2ccc(OC)cc2)nnc1SCC(=O)Nc1cccc(C(=O)OC)c1	inconclusive [inhibitor, single point]
COc1ccc(-c2nc(CN3CCCCC3CCc3ccccn3)c(C)o2)cc1 (stereo not given)	inconclusive [inhibitor, partial curve]
O=C(/C(=C(\[O-])c1ccccc1)[n+]1ccc2ccccc2c1)c1ccc(Cl)cc1	inconclusive [inhibitor, single point]
CCCc1cc(C(=O)Cc2ccc(C(=O)OCC)o2)c(O)cc1O	active: 11.7 µM
CCn1c(C)c(C)c2cc(C(=O)N3CCc4ccccc4C3)ccc21	inconclusive [inhibitor, partial curve, poor fit]
Cc1ccc(S(=O)(=O)NCCC(=O)NCCCSc2ccccc2)cc1	inconclusive [inhibitor, single point]

SMILES	Potency
O=c1cc(-c2ccccc2)c2c(O)cc(O)cc2o1	inactive
CC(C)OC1(c2ccccc2)OC(=O)c2ccccc21 (stereo not given)	inconclusive [inhibitor, partial curve, poor fit]
CSc1nsc(SCC(=O)Nc2nc3ccccc3s2)n1	inactive
Cc1ccc(-c2nc(=S)c3c(n2Cc2ccco2)CC(C)(C)OC3)cc1	inconclusive [inhibitor, partial curve, poor fit]
CCOc1ccc(NC(=O)Cn2nnc(-c3ccc(C(N)=O)cc3)n2)cc1S(=O)(=O)N1CCCC1	inactive
COc1cc(C2CC(c3cccs3)=NN2C(=O)CCl)ccc1OC(F)F (stereo not given)	inconclusive [inhibitor, partial curve]
O=C(/C=C/c1ccc2c(c1)OCO2)NCc1ccco1	inactive
COCCNC(=O)C(=O)c1cc(C)n(-c2ccc([N+](=O)[O-])cc2)c1C	inconclusive [inhibitor, partial curve, poor fit]
O=C(O)CCCCCN1C(=O)CSC1=S	inactive
CC(C)(C)C(=O)NNC(=O)c1cnccn1	inactive
Cc1cccc(Nc2nc(N)c([N+](=O)[O-])c(N3CC(C)OC(C)C3)n2)c1 (stereo not given)	inconclusive [inhibitor, partial curve]
CCOc1ccc(OCC)c(NC(=O)C2CCN(c3cnccn3)CC2)c1	inconclusive [inhibitor, single point]
CC(C)(C)c1ccc(-c2nnc(SCCC#N)n2C2CCCC2)cc1	inconclusive [inhibitor, single point]
CSc1nnc(Cc2cc(=O)[nH]c(=O)[nH]2)n1-c1cccc(C)c1	inconclusive [inhibitor, single point]
COc1ccccc1-c1cc(C(=O)N/N=C/c2ccc(C)o2)c2ccccc2n1	inconclusive [inhibitor, partial curve, poor fit]
O=C(c1cccc([N+](=O)[O-])c1)N1CCCC(C(=O)N2CCN(c3ccccc3)CC2)C1 (stereo not given)	inactive
Cc1ccc(C2C3=C(CC(C)(C)CC3=O)NC3=C2C(=O)CC(C)(C)C3)o1	inconclusive [inhibitor, partial curve, poor fit]
CC(=O)N1c2ccc(S(=O)(=O)N3CCC(C(=O)NC4CCCCC4)CC3)cc2CC1C (stereo not given)	inconclusive [inhibitor, partial curve]
Clc1ccc2c(NNc3ccccc3Cl)ccnc2c1	inconclusive [inhibitor, single point]
CCOc1ccccc1N1CCN(C(=O)c2cc3c(C)cc(C)cc3[nH]2)CC1	inconclusive [inhibitor, single point]
O=C1c2oc3ccc(Cl)cc3c(=O)c2C(c2cccc(Br)c2)N1CCO (stereo not given)	active: 11.7 µM
Cc1cc(/C=C2\C(=N)N3N=C(CC(=O)N4CCOCC4)SC3=NC2=O)c(C)n1-c1ccccc1	inconclusive [inhibitor, single point]
NC(=O)SCC(=O)Nc1ccc(Cl)c(Cl)c1	inconclusive [inhibitor, single point]
Cc1cc(N=Nc2ccc(C)c(N=Nc3cc(C)c(N)cc3N)c2)c(N)cc1N	inactive

SMILES	Potency
CC(=O)NCCSc1ccc(S(=O)(=O)N2CCCC2)cn1	inconclusive [inhibitor, single point]
CCn1c(CCCOc2ccc(Cl)cc2Cl)nnc1SCC(=O)Nc1cc(F)ccc1C	inconclusive [inhibitor, single point]
COc1ccccc1N1CCN(C(=O)c2ccc(N3CCCC3=O)cc2)CC1	inconclusive [inhibitor, partial curve]
COc1cc2c(cc1NC(=O)C(C)OC(=O)c1ccc(S(=O)(=O)Nc3ccccc3Cl)cc1)oc1ccccc12 (stereo not given)	inconclusive [inhibitor, full curve]
C[C@H]1CC[C@@]2(C)[C@@H](CC[C@@H]3[C@@H]2CC[C@]2(C)[C@@H](O)CC[C@@H]32)C1	inactive
CN(C)S(=O)(=O)c1cccc(-c2nn(-c3ccccc3)cc2/C=C2\SC(=S)NC2=O)c1	active: 4.65 µM
COc1ccccc1C(=O)C1CCCN(C(=O)c2cccc(Cn3cccn3)c2)C1 (stereo not given)	inconclusive [inhibitor, single point]
CC(=O)c1ccc(NC(=O)Nc2ncn(Cc3cccc(C)c3)n2)cc1	inconclusive [inhibitor, single point]
Cc1nc(SCC(=O)c2cc3ccccc3oc2=O)c(C#N)c(C)c1C(=O)Nc1ccccc1	inconclusive [inhibitor, single point]
COc1cc(/C=N/NC(=O)c2cccc(S(=O)(=O)N3CCOCC3)c2)cc(OC)c1O	inactive
CN(CC(=O)Nc1ccccc1Cl)C(=O)CSc1nncs1	inactive
Clc1ccc(-c2cn(-c3ccccc3)c3[n+]2CCS3)cc1	inconclusive [inhibitor, full curve]
NC(=O)c1ccccc1NC(=O)COc1ccc2c(c1)OCO2	inactive
CCCc1cc(=O)oc2c(CN3CCCC3)c(O)ccc12	inconclusive [inhibitor, single point]
CC1CCCC(NC(=S)Nc2ccc(SC(F)F)cc2)C1C (stereo not given)	inconclusive [inhibitor, single point]
COc1ccccc1N1CCN(C(c2cccs2)C(C)NC(=O)c2ccncc2)CC1 (stereo not given)	inconclusive [inhibitor, single point]
CCCNS(=O)(=O)c1ccc(CCC(=O)NCCc2ccc(OC)c(OC)c2)cc1	inactive
O=C(CSc1nc(N2CCCCC2)nc(N2CCCCC2)n1)Nc1nccs1	inactive
COc1ccc(-c2cc(C3CCNCC3)[nH]n2)cc1	active: 2.62 µM
COC(=O)C(C)Sc1nnc2n(-c3cccc(C)c3)c(=O)c3c4c(sc3n12)CCCC4 (stereo not given)	active: 10.4 µM
Oc1c(Cl)cc(Cl)cc1C=Nc1ccc(Br)cc1	inconclusive [inhibitor, single point]
CC1Cc2cc(/C(O)=C3/C(=O)C(=O)N(CCCN4CCOCC4)C3c3ccc(C(C)C)cc3)ccc2O1 (stereo not given)	inconclusive [inhibitor, single point]
